Among all 310,000 compounds or so, about 14,000 (4.5%) showed an effect of 50% or more. Effects have a minus sign here. Some of the results follow.
Target: human ether-à-go-go-related gene (hERG) potassium channel (human, UniProt Q12809)
Experiment: primary screen, population patch clamp on CHO cells stably expressing hERG
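Note: peak tail current of the secondary pulse compared with the same well before compound.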

human ether-à-go-go-related gene (hERG) potassium channel, sequence (Q12809 whole entry, looked up): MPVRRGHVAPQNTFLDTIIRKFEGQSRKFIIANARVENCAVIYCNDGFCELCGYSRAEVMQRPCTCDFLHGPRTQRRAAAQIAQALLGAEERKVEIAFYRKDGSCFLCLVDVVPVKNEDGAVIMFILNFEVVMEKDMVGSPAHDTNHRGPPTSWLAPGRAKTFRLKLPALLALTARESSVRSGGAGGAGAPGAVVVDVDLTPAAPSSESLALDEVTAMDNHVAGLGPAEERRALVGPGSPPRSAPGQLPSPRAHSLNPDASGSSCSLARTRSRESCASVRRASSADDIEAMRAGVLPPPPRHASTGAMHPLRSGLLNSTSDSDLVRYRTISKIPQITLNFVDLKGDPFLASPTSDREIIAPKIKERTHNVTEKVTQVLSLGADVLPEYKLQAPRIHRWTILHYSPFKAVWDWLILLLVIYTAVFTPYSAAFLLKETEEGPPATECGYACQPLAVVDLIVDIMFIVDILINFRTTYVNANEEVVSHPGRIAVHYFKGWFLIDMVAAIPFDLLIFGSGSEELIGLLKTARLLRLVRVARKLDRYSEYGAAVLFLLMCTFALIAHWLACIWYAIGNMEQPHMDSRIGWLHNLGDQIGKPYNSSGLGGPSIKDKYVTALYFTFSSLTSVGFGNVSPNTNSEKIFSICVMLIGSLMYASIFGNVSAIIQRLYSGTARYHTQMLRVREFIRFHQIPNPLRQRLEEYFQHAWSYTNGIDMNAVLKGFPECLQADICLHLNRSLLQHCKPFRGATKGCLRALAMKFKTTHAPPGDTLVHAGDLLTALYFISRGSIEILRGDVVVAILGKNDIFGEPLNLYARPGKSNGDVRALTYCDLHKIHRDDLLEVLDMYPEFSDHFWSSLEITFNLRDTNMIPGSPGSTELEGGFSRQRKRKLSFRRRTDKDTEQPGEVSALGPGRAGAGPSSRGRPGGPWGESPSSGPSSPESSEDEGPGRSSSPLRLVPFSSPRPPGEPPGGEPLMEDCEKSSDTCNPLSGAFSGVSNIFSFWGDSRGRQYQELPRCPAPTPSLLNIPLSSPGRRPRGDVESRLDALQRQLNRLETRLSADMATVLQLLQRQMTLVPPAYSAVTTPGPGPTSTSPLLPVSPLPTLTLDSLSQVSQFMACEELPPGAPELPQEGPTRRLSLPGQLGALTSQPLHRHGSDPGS

Compound	hERG current change (%, negative = inhibition) at 10uM [%]
COc1ccccc1NS(=O)(=O)c1ccc(N/N=C/C=C/c2ccccc2[N+](=O)[O-])c([N+](=O)[O-])c1	9.59
CCOC(=O)C1CCN(C(=O)Nc2ccc(OC)c(OC)c2)CC1	1.86
c1cc(C2CCCCC2)ccc1Oc1nc(N2CCOCC2)nc(N2CCOCC2)n1	4.43
Cc1ccc(-c2c3c(nc4sc(C(N)=O)c(N)c24)CCC3)cc1	17.7
COc1ccccc1N1CCN(C(=O)c2cccc(N3C(=O)NC4CC3(C)Oc3ccccc34)c2)CC1 (stereo not drawn)	-4.9
CCN(CC)S(=O)(=O)c1ccc(Cl)c(NC(C)=O)c1	4.2
O=C(NCc1ccc(Cl)cc1)c1cc(-c2cccs2)on1	-4.61
Cc1cccc(NC(=S)NC(=O)c2cc(-c3ccccc3)nc3ccccc23)c1	15.9
CCOc1ccc(OCC)c(S(=O)(=O)N2CCC(C)CC2)c1	-29.4
Cc1cc(C(=O)CCC(=O)NCC2COc3ccccc3O2)c(C)s1 (stereo not drawn)	-24.4
O=C(CSc1nnc(-c2cc3ccccc3cc2O)n1Cc1ccco1)N1CCc2ccccc2C1	0.619
Br.COCCNc1nc2ccccc2n1CC(=O)c1ccc(OC)c(OC)c1	-1.21
Cc1cc(C)nc(NC2=NCCN2C(=S)Nc2ccc(C)c(C)c2)n1	6.2
O=c1[nH]c2ccccc2c2oc(CCl)nc12	2.65
COc1ccc(OC)c(Nc2nc(C3CC3)nc3c2nnn3Cc2ccccc2)c1	22
CCN(CCCNC(=O)Cn1ncc2c([nH]c3ccc(C)cc32)c1=O)c1ccccc1	19
COC(=O)C(OC(=O)c1ccccc1)C(C)Br (stereo not drawn)	-16.2
COCCCN1C(=O)C(=O)/C(=C(/O)c2ccc(OC)cc2C)C1c1cccnc1 (stereo not drawn)	4.23
COc1cccc(OCCOc2ccccc2[N+](=O)[O-])c1	8.27

Compound	hERG current change (%, negative = inhibition) at 10uM [%]
O=c1c2cc(Cl)ccc2nc(-c2ccccc2)n1O	15.7
CCOC(=O)c1nnc(-c2ccccc2)nc1NC	-4
O=C(O)CN(c1cccc(C(F)(F)F)c1)S(=O)(=O)c1ccccc1	22.8
CCOC(=O)CSc1nnc(Cc2ccccc2)n1Cc1ccco1	2.92
CCOC(=O)C(Cc1ccc(NC(=O)/C(=C/c2ccccc2)NC(=O)c2ccccc2)cc1)N1C(=O)c2ccccc2C1=O (stereo not drawn)	13.8
O=C(COc1ccccc1C(=O)NCC1CCCO1)Nc1ccc(Br)cc1 (stereo not drawn)	-11.6
O=C(CSc1nc2ccccc2o1)N1CCN(S(=O)(=O)c2ccc3ccccc3c2)CC1	23.5
COc1cc(/C=N/NC(=O)CCn2nc(C)cc2C)ccc1O	26.9
O=c1c(-c2ccc3c(c2)OCCO3)coc2cc(O)cc(O)c12	-9.23
O=c1[nH]nc(Sc2ncnc3sccc23)n1CCc1ccccc1	-18.3
Cl.O=C(Nc1cccc(C(F)(F)F)c1)c1cccnc1NCCO	-40.4
O=C(O)CC(c1ccccc1)N1C(=O)c2ccccc2C1=O (stereo not drawn)	0.532
COC(=O)c1sccc1NC(=O)c1cc(C)on1	4.01
Cc1c(CN2CCC(CO)(CCOc3ccccc3)CC2)c(=O)n(-c2ccccc2)n1C	-5.7
O=[N+]([O-])c1cccc(S(=O)(=O)c2ccc(NCCO)c([N+](=O)[O-])c2)c1	-51
CCn1c(O)c(N=NC(=O)c2cccs2)c2ccccc21	12.7
CC(=O)Nc1ccc(NC(=O)CSc2nnc(COc3ccccc3C)n2CC2CCCO2)cc1 (stereo not drawn)	4.2
CCOCCn1c(COc2ccc(C)cc2)nc2ccccc21	-52.6
COC(=O)c1c(C)[nH]c(C(=O)CN2C(=O)NC3(CCOc4ccccc43)C2=O)c1C (stereo not drawn)	-4.52

Compound	hERG current change (%, negative = inhibition) at 10uM [%]
CCOC(=O)C1(CC)NC(c2ccco2)C2C(=O)N(C)C(=O)C21 (stereo not drawn)	19.7
Cc1cc(C)c(S(=O)(=O)n2c([N+](=O)[O-])cnc2C)c(C)c1	27.9
O=c1oc(-c2ccc([N+](=O)[O-])cc2)nc2ccccc12	18.2
CCOC(=O)NC1(NC2CCCCC2)Oc2ccccc2O1	-4.53
O=C(NN1C(=O)C2C(C1=O)C1C=CC2C12CC2)c1ccccc1Cl (stereo not drawn)	7
Cc1ccc2c(C(=O)CN3CC(C)CC(C)C3)c(C)[nH]c2c1 (stereo not drawn)	-51
COc1cc(OC)cc(C(=O)NCC(=O)OCC(=O)c2cc(C)n(Cc3ccco3)c2C)c1	2.97
CCn1c(-c2ccccc2O)n[nH]c1=S	33.5
CCOc1ccccc1CNC(=O)CCCc1cn(C)c2ccccc12	-2.65
CCc1ccc(OCC(=O)N/N=C(\C)c2ccc(OC(F)F)cc2)cc1	-2.15
CCCC(=O)Nc1ccc(S(=O)(=O)Nc2cc(C)nc(C)n2)cc1	7.02
COc1cccc2[nH]c(C(=O)NCC3CCCO3)cc12 (stereo not drawn)	13
CCOC(=O)CNC(=O)N1CCCC(CNS(=O)(=O)Cc2ccccc2)C1 (stereo not drawn)	9.38
COc1nc(N(C)C)nc(N(C#N)S(=O)(=O)c2ccc(C)cc2)n1	20.5
Cc1ccc(SCCSc2ncccn2)cc1	-2.38
O=C(COC(=O)CNC(=O)C12CC3CC(CC(C3)C1)C2)NC1CCS(=O)(=O)C1 (stereo not drawn)	-30.5
CN1CSC(=S)N(C)C1	14.7
CCOc1ccc(N/C(N)=N/c2nc(CSc3nnnn3-c3ccccc3)cc(=O)[nH]2)cc1	-4.22
Cc1ccc(C)c(S(=O)(=O)N2CCCC2CNC(=O)C(=O)NCc2ccccn2)c1 (stereo not drawn)	-20

Source: article PMC4336329 (PLoS ONE, 2015)
